PubChem BioAssay AID1671194 (National Center for Advancing Translational Sciences (NCATS), 2021)
About 240 (0.17%) of roughly 140,000 compounds were called active. Inconclusive means that the source gave no clear call. Such entries were picked first, then a sample of the others. Calls come from the whole dose curve; as a rule, active = well fitted inhibition curve with a large enough effect; inconclusive = small, poorly fitted or top-dose-only effect; inactive = no such curve, though single readings can be large or run the other way. Where the call is inconclusive, the potency comes from a doubtful curve fit.

Assay: Primary qHTS assay for inhibitors of alpha-synuclein gene (SNCA) expression; note: nearly all actives have a fitted effect of over 45% in size
Conditions: HEK-293 SNCA-luciferase knock-in, luminescence, 24 h; series mostly up to 57.2 µM
Potency is the fitted concentration of half-maximal effect; tags give direction and shape of the fitted curve.

SMILES | Potency
CC1CCCCC1Nc1ncnc2c1CN(C1CCCNCC1)C(=O)CN2C (centres undefined) | inactive
Cc1ccc(OCC(=O)N2CCC(c3noc(-c4cnccn4)n3)C2)cc1 (centres undefined) | inactive
COc1ccc(-c2nc(C)c(CCNC(=O)c3cccs3)s2)cc1 | inactive
Cc1noc2c(-c3cccnc3NCCCn3ccnc3)cc(-c3ccccc3)nc12 | inconclusive: 39.8 µM [inhibitor, single point]
C=CCNC(=O)[C@@H]1Cc2cn(CC3CC3)c3cccc(c23)[C@H](CC(C)C)N1 | inconclusive: 31.6 µM [inhibitor, single point]
O=C(NCCc1ccccc1F)c1ccc2nc(-c3cccnc3Cl)oc2c1 | inactive
O=Cc1ccc(-c2cccc(Cl)c2)cc1 | inactive
Fc1ccc(C(c2nnc(-c3ccccc3)o2)N2CCN(c3ccccc3)CC2)c(Cl)c1 (centres undefined) | inconclusive: 39.8 µM [inhibitor, single point]
Cc1ccc(C(=O)Nc2cc3cc(Cl)ccc3oc2=O)cc1 | inactive
Cc1nsc(NC(=O)NCc2ccccc2OC(F)(F)F)n1 | inconclusive: 39.8 µM [inhibitor, single point]
N#Cc1ccccc1CN1CCCCCCNC(=O)[C@@H]2C[C@@H](C(=O)N3CCc4ccccc4C3)C[C@@H]21 | inconclusive: 12.6 µM [inhibitor, single point]
COc1ccc(Cl)cc1-c1ccc2c(c1)C(=O)N1CCN(C(=O)CO)C[C@@H]1C(=O)N2 | inconclusive: 56.2 µM [inhibitor, single point]
CCOc1ccc(S(=O)(=O)N(C(C)=O)c2ccc3oc(C)c(C(=O)OC)c3c2)cc1 | inconclusive: 5.62 µM [inhibitor, partial curve, poor fit]
COc1cc([C@@H]2c3cc4c(cc3[C@H](O)[C@H]3COC(=O)[C@@H]23)OCO4)cc(OC)c1OC | inconclusive: 30.4 µM [inhibitor, partial curve, poor fit]
COc1ccc(OC)c(CNC(=O)C2CCN(c3cn[nH]c(=O)c3)C2)c1 (centres undefined) | inconclusive: 44.7 µM [inhibitor, single point]
Cc1ccc(CN2C(=O)COC[C@H]2C(=O)NCc2ccco2)cc1 | inconclusive: 39.8 µM [inhibitor, single point]
CCOCCNc1nc(N)nc2c1CCN(C(=O)C1(N)CCC1)CC2 | inactive
Cc1ncc2c(c1CNC(=O)C1CCc3ccccc3C1)CCNC2 (centres undefined) | inconclusive: 3.55 µM [inhibitor, full curve, poor fit]
O=C(NC1CCCC1)NC1CCN(Cc2cccc(-c3cccs3)c2)CC1 | inactive
